Results as given in article PMC4336329 (PLoS ONE, 2015).
The campaign covered roughly 310,000 compounds. About 14,000 (4.5%) showed an effect of 50% or more. Effects have a minus sign here. This is one part of the list.

biological target: human ether-à-go-go-related gene (hERG) potassium channel (human, UniProt Q12809); experiment: primary screen, population patch clamp on CHO cells stably expressing hERG
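Note: peak tail current of the secondary pulse compared with the same well before compound.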

human ether-à-go-go-related gene (hERG) potassium channel, sequence (Q12809 whole entry, looked up): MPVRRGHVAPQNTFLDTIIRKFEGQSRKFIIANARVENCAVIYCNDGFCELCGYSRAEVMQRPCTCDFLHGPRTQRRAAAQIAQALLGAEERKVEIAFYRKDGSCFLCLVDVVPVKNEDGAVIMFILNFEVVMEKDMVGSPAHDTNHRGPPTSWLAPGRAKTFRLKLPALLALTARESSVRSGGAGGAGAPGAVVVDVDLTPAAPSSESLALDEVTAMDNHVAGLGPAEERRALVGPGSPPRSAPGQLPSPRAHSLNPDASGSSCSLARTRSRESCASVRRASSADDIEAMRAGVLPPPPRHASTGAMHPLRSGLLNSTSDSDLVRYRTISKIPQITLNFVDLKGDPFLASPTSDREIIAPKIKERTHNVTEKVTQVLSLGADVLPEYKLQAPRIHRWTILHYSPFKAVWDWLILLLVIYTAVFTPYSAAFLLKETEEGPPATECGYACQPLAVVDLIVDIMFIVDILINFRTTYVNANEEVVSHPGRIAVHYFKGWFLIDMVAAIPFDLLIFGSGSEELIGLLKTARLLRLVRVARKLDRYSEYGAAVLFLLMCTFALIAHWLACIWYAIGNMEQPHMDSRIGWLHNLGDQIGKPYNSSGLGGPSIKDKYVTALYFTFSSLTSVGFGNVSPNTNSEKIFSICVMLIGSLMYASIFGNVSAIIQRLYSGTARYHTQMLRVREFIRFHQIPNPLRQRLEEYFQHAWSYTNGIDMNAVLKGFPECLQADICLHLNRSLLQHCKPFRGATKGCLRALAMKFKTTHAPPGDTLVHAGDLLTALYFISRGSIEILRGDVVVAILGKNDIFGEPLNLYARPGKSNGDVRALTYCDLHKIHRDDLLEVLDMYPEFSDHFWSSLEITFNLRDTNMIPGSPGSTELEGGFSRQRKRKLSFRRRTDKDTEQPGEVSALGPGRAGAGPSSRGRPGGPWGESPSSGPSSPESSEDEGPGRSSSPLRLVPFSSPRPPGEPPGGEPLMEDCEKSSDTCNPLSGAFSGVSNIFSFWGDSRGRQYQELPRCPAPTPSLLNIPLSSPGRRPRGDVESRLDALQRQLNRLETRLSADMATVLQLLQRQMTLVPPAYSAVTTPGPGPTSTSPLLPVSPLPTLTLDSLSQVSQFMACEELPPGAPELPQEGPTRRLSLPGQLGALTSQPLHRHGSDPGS

Compound | hERG current change (%, negative = inhibition) at 10uM
COc1ccccc1-c1ccc(NC2CCCC2)nn1 | -32.7%
O=C(COC(=O)CCCNC(=O)c1ccc(Cl)cc1)NCc1ccccc1Cl | -28.8%
COc1cccc(/C=C2\SC(=S)N(C(Cc3ccccc3)C(=O)O)C2=O)c1 (centres unmarked) | 18.3%
CCN(CC(=O)NCc1ccc(F)cc1)C(=O)Cc1ccc(OC)cc1 | -63.5%
COc1ccc(Cc2nc3ccc(C(=O)NC(C)c4cnn(C)c4)cc3o2)cc1 (centres unmarked) | 2.04%
CCn1cc(CNC(=O)CC2C(=O)NCCN2CC(c2ccccc2)c2ccccc2)cn1 (centres unmarked) | 14.4%
Cc1ccccc1CC(=O)c1ccc(O)c(C)c1O | 1.81%
Cc1ccc(S(=O)(=O)N(C)C)cc1NC(=O)COC(=O)C1=COCCO1 | -5.68%
CCN(CC)C(=O)CN(c1cc2c(cc1OC)oc1ccccc12)S(=O)(=O)c1ccc(C)cc1 | -3.73%
COc1cccc(-n2c(SC)nnc2-c2cnccn2)c1 | 3.46%
CN1C(=O)/C(=C2\SC(=S)N(C(CCC(=O)O)C(=O)O)C2=O)c2ccccc21 (centres unmarked) | 13%
Cc1nn(-c2ccccc2)c2nc(-c3ccncc3)cc(C(=O)NCc3ccco3)c12 | -66.6%
N#Cc1ccc(COC(=O)c2ccc3c(c2)OCO3)cc1 | -27.4%
CCNC(=O)CSc1nnc(-c2cccc(S(=O)(=O)N(CC)CC)c2)n1CCc1ccccc1 | -9.82%
Cc1cccc(N2CCN(C(=O)C(C)n3nc(C)n4c(cc5occc54)c3=O)CC2)c1C (centres unmarked) | -18.3%
COc1ccc(CCNC(=O)c2cn3ccc(C)cc3n2)cc1OC | 1.66%
C/C(=N/NC(=O)c1ccccc1)c1ccc(NC(=O)C(F)(F)F)cc1 | -0.422%
O=S(=O)(NCCc1csc(-c2cccnc2)n1)c1cc(F)ccc1F | -9.81%
CCOc1ccc(Oc2cc(NC(=O)c3ccco3)cc([N+](=O)[O-])c2)cc1 | 7.22%
CN(CC(=O)Nc1ccc(Cl)cc1)C(=O)C1=COCCO1 | 9.26%
Brc1ccc(-c2nc(N/N=C/c3cccnc3)c3ccccc3n2)cc1 | 10.6%
Cc1ccccc1CN1CCc2c(OCC(=O)N3CCCCC3)cccc2C1=O | -27.8%

Compound | hERG current change (%, negative = inhibition) at 10uM
COc1cccc(C2CC(=O)Nc3n[nH]c(-c4ccccc4)c32)c1OC (centres unmarked) | -13.4%
Cn1c(SCc2ccc(F)cc2)nnc1-c1ccncc1 | 5.86%
CCn1ncc(C2=NOC(C(=O)Nc3cccnc3)C2)c1C (centres unmarked) | 1.02%
Cn1c(N)c(C(=O)COC(=O)c2nc(Cl)ccc2Cl)c(=O)n(C)c1=O | -11.2%
COc1ccc(OC)c(NC(=O)Nc2cccnc2)c1 | 11.2%
COc1ccc([N+](=O)[O-])cc1NS(=O)(=O)c1cccc(C(=O)O)c1 | 16.7%
C=CCNC(=O)C1CC(=O)N(c2ccc(OCc3ccccc3Cl)cc2)C1 (centres unmarked) | 8.11%
[O-][n+]1c2c(c3c4non(O)c4ccc31)CCCC2 | 3.11%
Cc1ccc(S(=O)(=O)N2CCCC2C(=O)N2CCCCCC2)cc1 (centres unmarked) | -10.7%
CC1CC(CC(=O)Nc2nc(-c3ccccc3)cs2)C(=O)O1 (centres unmarked) | 22.2%
Oc1ccc(N=Nc2ccc3ccccc3c2)cc1 | 9.21%
O=C1CCC(C(=O)N2CCN(c3ccccc3Cl)CC2)CN1CC1CCCCC1 (centres unmarked) | -72.2%
O=C(CSc1nnc(-c2cccnc2)o1)Nc1cccc(Cl)c1 | -13.4%
FC(F)(F)c1ccnc(Oc2ccc(C3=NCCS3)cc2)c1 | 14.5%
COc1cc(CNC2CCCCCCC2)cc(Cl)c1OC.Cl | -2%
O=S(=O)(c1ccccc1)c1nc(-c2ccccc2)oc1N1CCCC1 | 8.44%
Cc1cnccc1CN(C)C(=O)CC1C(=O)NCCN1CC1CCCCC1 (centres unmarked) | -4.59%
Cc1ccc(C)c2sc(NC(=O)c3ccc(N4CCCCC4)c([N+](=O)[O-])c3)nc12 | 8.22%
Cc1cc(NC(=O)CSc2nc3ccccc3c(=O)n2-c2ccccc2)no1 | 2.88%
Cc1nnc(N2CCCC(C(=O)NCc3cccc(F)c3)C2)c2nn(-c3ccccc3)c(C)c12 (centres unmarked) | -35.3%
Cc1ccccc1-n1c(=O)c2ccccc2n2cnnc12 | -7.97%
COc1ccc(C(C(=O)NC(C)(C)C)N(CCO)C(=O)CCC(=O)Nc2cc(C)on2)cc1 (centres unmarked) | 24%

Compound | hERG current change (%, negative = inhibition) at 10uM
CC(C)c1ccc2[nH]c3c(c2c1)CCCC3=O | 6.64%
CCN1C(=O)[C@@H]2[C@@H](c3ccc(-c4ccc(OC)cc4)cc3)N3CCC[C@@]3(C(=O)OC)[C@@H]2C1=O.O=C(O)C(F)(F)F | -18.2%
CCc1ccc(C(=O)NN=C2CCCCCC2)s1 | 7.65%
Cc1ccc(S(=O)(=O)N2CCC(C(=O)N3CCC[C@H]3C(=O)NCc3ccco3)CC2)cc1 | -10.4%
CCc1nc2ccccc2c(C(=O)OCC(=O)Nc2cccc(S(=O)(=O)N3CCOCC3)c2)c1C | -1.9%
CCOC(=O)N1CCC(NC(=O)c2ccc(Cl)cc2)CC1 | -14.5%
Cc1ccc(C2C3=C(CCCC3=O)OC3=C2C(=O)CCC3)cc1 | -3.98%
COc1ccc(CCNC(=O)c2cc(=O)[nH]c3ccc(Br)cc23)cc1OC | 21.4%
CC(C)OCCCNC(=O)c1ccc(C2SCC(=O)N2Cc2ccco2)cc1 (centres unmarked) | -2%
O=C(c1ccc(F)cc1)N1CCN2C(=O)c3ccccc3C12c1ccccc1 (centres unmarked) | -31.5%
COc1ccc(OCC(=O)N/N=C2/C=C(C)CC2)cc1 | 4.42%
CC1=NN(c2ccc(C)c(C)c2)C(=O)/C1=C/c1ccc2c(c1)n(C)c(=O)n2C | -0.968%
CC(C)c1nnc(NC(=O)CCC(=O)NC2CCCCC2)s1 | 1.73%
CC(C)C(NC(=O)OCc1ccccc1)C(=O)OCC(=O)N1C(C)CCCC1C (centres unmarked) | 4.95%
CCc1nc2scc(-c3ccc(C)cc3)c2c(=O)n1N | -8.41%
O=C(CSc1ccccn1)Nc1cccc([N+](=O)[O-])c1 | 2.52%
N=C1/C(=C/c2cccn2-c2ccc([N+](=O)[O-])cc2)C(=O)N=C2SC=CN12 | -4.06%
Cc1cccc2c1-c1sc(C(=O)Nc3cccc([N+](=O)[O-])c3C)cc1CO2 | 0.19%
Nc1c(Br)cc(Br)c(N2CCCC2=O)c1Br | 7.05%
Cc1ccnc(NC(=O)c2cccc(S(=O)(=O)N3CCCC3)c2)c1 | -0.622%
Cc1cccc(-n2c(SCC(=O)NCc3ccco3)nc3ccccc3c2=O)c1 | -17.6%
Cc1ccc(S(=O)(=O)N2CCN(Cc3ccccc3)CC2)s1 | -21.9%

Compound | hERG current change (%, negative = inhibition) at 10uM
CC(/C=N/NC(=O)c1ccc(Cn2cc([N+](=O)[O-])cn2)o1)=C\c1ccccc1 | -5.3%
O=C(CSc1nccn1-c1ccc(Cl)cc1)NCc1ccc2c(c1)OCO2 | -33.4%
O=C(CCc1ccccc1)NCC1(c2ccccc2)CCCC1 | 4.81%
COc1ccccc1N1CCN(C(c2cccs2)C(C)NC(=O)c2cccnc2)CC1 (centres unmarked) | -22.5%
CC(=O)Nc1ccc(S(=O)(=O)C(C#N)c2nc3ccccc3nc2NCCCO)cc1 (centres unmarked) | 0.646%
Cc1cc(N2C(=O)CC(C(C)c3ccccc3)C2=O)no1 (centres unmarked) | 1.87%
CC(=O)c1cn(C)c(=O)n(C)c1=O | 4.7%
CC(CCc1ccccc1)NC(=O)CCC(=O)N1CCC(C(=O)O)CC1 (centres unmarked) | 20.9%
CCCCn1nnnc1NCc1cccnc1 | 8.93%
CC(C)OC(=O)c1ccc(NC(=O)c2cncc(Br)c2)cc1 | -6.9%
COc1ccc(S(=O)(=O)N(n2c(C)nnc2-n2nc(C)cc2C)S(=O)(=O)c2ccc(OC)cc2)cc1 | 15.9%
COC(=O)[C@H](C)NC(=O)Nc1ccc(S(N)(=O)=O)cc1 | 12.1%
CCN(CC)CCN1C(=O)C(=O)/C(=C(/O)c2cnn(-c3ccccc3)c2C)C1c1cccnc1 (centres unmarked) | 21.3%
Cl.O=C(NCC(c1cccs1)N1CCOCC1)c1cc2ccccc2o1 (centres unmarked) | -15.7%
COc1cc2c(cc1OC)CN(CC(=O)Nc1ccc(F)cc1)C(C(=O)O)C2 (centres unmarked) | 3.73%
CCOc1ccc(-n2c(=S)sc3c(=O)n(-c4ccccc4)c(SCC(=O)O)nc32)cc1 | -5.31%
Oc1ccccc1/C=N/n1cnn(Cc2ccccc2Cl)c1=S | 13.4%
COc1cccc(/C=C2\CCC(C3CCCC3)C2=O)c1OC (centres unmarked) | 8.7%
COc1ccc(N(C(=O)c2ccco2)C(C(=O)NC2CCCC2)c2ccc(N3CCOCC3)cc2)c(OC)c1 (centres unmarked) | -9.32%
CN(C)/C=C/C(=O)c1nn(-c2ccc(F)cc2)ccc1=O | 27.6%
